Sequences and labels used below:
T1: RBFOX1 RRM (Homo sapiens, UniProt Q9NWB1 109-208)
T1 sequence: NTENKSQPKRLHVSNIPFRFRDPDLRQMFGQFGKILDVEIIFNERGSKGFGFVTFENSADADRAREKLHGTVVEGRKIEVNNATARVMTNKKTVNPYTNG

B1: GACGUUC (DNA:RNA)
RNA: GGGAGACCGGAAUUCAGAUUGUCCGACGUUCUUAAAUCCCGUCGUAGCCACCA
DNA 1: CAATCTGAATTCCGGTCTCCC
DNA 2: TGGTGGCTACGACGGGATT
B2: GAACGUC (DNA:RNA)
RNA: B1 RNA with C27A, G28C, U29G
DNA 1: CAATCTGAATTCCGGTCTCCC
DNA 2: TGGTGGCTACGACGGGATT
B3: AGUCAGG (DNA:RNA)
RNA: GGGAGACCGGAAUUCAGAUUGUCCAGUCAGGUUAAAUCCCGUCGUAGCCACCA
DNA 1: CAATCTGAATTCCGGTCTCCC
DNA 2: TGGTGGCTACGACGGGATT
B4: UCUUACC (DNA:RNA)
RNA: B3 RNA with A25U, G26C, C28U, G30C, G31C
DNA 1: CAATCTGAATTCCGGTCTCCC
DNA 2: TGGTGGCTACGACGGGATT
B5: CGCGUCC (DNA:RNA)
RNA: B1 RNA with G25C, A26G, U30C
DNA 1: CAATCTGAATTCCGGTCTCCC
DNA 2: TGGTGGCTACGACGGGATT
B6: CAUCAUA (DNA:RNA)
RNA: B3 RNA with A25C, G26A, G30U, G31A
DNA 1: CAATCTGAATTCCGGTCTCCC
DNA 2: TGGTGGCTACGACGGGATT
B7: GAGCCGC (DNA:RNA)
RNA: B1 RNA with C27G, G28C, U29C, U30G
DNA 1: CAATCTGAATTCCGGTCTCCC
DNA 2: TGGTGGCTACGACGGGATT
B8: CUACACA (DNA:RNA)
RNA: B3 RNA with A25C, G26U, U27A, G30C, G31A
DNA 1: CAATCTGAATTCCGGTCTCCC
DNA 2: TGGTGGCTACGACGGGATT
B9: GUCUGGG (DNA:RNA)
RNA: B3 RNA with A25G, G26U, U27C, C28U, A29G
DNA 1: CAATCTGAATTCCGGTCTCCC
DNA 2: TGGTGGCTACGACGGGATT
B10: CGCGAGC (DNA:RNA)
RNA: B3 RNA with A25C, U27C, C28G, G31C
DNA 1: CAATCTGAATTCCGGTCTCCC
DNA 2: TGGTGGCTACGACGGGATT
B11: AGACCGG (DNA:RNA)
RNA: B3 RNA with U27A, A29C
DNA 1: CAATCTGAATTCCGGTCTCCC
DNA 2: TGGTGGCTACGACGGGATT
B12: CAAAUUA (DNA:RNA)
RNA: B1 RNA with G25C, C27A, G28A, C31A
DNA 1: CAATCTGAATTCCGGTCTCCC
DNA 2: TGGTGGCTACGACGGGATT
B13: CGCUAGA (DNA:RNA)
RNA: B3 RNA with A25C, U27C, C28U, G31A
DNA 1: CAATCTGAATTCCGGTCTCCC
DNA 2: TGGTGGCTACGACGGGATT
B14: GCCUCUC (DNA:RNA)
RNA: B1 RNA with A26C, G28U, U29C
DNA 1: CAATCTGAATTCCGGTCTCCC
DNA 2: TGGTGGCTACGACGGGATT
B15: GUCAAGC (DNA:RNA)
RNA: B1 RNA with A26U, G28A, U29A, U30G
DNA 1: CAATCTGAATTCCGGTCTCCC
DNA 2: TGGTGGCTACGACGGGATT
B16: CCCACUG (DNA:RNA)
RNA: B1 RNA with G25C, A26C, G28A, U29C, C31G
DNA 1: CAATCTGAATTCCGGTCTCCC
DNA 2: TGGTGGCTACGACGGGATT
B17: GAAGAUG (DNA:RNA)
RNA: B1 RNA with C27A, U29A, C31G
DNA 1: CAATCTGAATTCCGGTCTCCC
DNA 2: TGGTGGCTACGACGGGATT
B18: UUUUCAA (DNA:RNA)
RNA: B3 RNA with A25U, G26U, C28U, A29C, G30A, G31A
DNA 1: CAATCTGAATTCCGGTCTCCC
DNA 2: TGGTGGCTACGACGGGATT
B19: GCGCAAU (DNA:RNA)
RNA: B3 RNA with A25G, G26C, U27G, G30A, G31U
DNA 1: CAATCTGAATTCCGGTCTCCC
DNA 2: TGGTGGCTACGACGGGATT
B20: UGAGAGU (DNA:RNA)
RNA: B3 RNA with A25U, U27A, C28G, G31U
DNA 1: CAATCTGAATTCCGGTCTCCC
DNA 2: TGGTGGCTACGACGGGATT
B21: UAUGGCC (DNA:RNA)
RNA: B1 RNA with G25U, C27U, U29G, U30C
DNA 1: CAATCTGAATTCCGGTCTCCC
DNA 2: TGGTGGCTACGACGGGATT
B22: UCUGGCG (DNA:RNA)
RNA: B3 RNA with A25U, G26C, C28G, A29G, G30C
DNA 1: CAATCTGAATTCCGGTCTCCC
DNA 2: TGGTGGCTACGACGGGATT
B23: AGAGGGC (DNA:RNA)
RNA: B3 RNA with U27A, C28G, A29G, G31C
DNA 1: CAATCTGAATTCCGGTCTCCC
DNA 2: TGGTGGCTACGACGGGATT
B24: CUUGCGG (DNA:RNA)
RNA: B3 RNA with A25C, G26U, C28G, A29C
DNA 1: CAATCTGAATTCCGGTCTCCC
DNA 2: TGGTGGCTACGACGGGATT
B25: AAGGAAU (DNA:RNA)
RNA: B3 RNA with G26A, U27G, C28G, G30A, G31U
DNA 1: CAATCTGAATTCCGGTCTCCC
DNA 2: TGGTGGCTACGACGGGATT
B26: GUAAUGC (DNA:RNA)
RNA: B1 RNA with A26U, C27A, G28A, U30G
DNA 1: CAATCTGAATTCCGGTCTCCC
DNA 2: TGGTGGCTACGACGGGATT
B27: CAAGGAC (DNA:RNA)
RNA: B1 RNA with G25C, C27A, U29G, U30A
DNA 1: CAATCTGAATTCCGGTCTCCC
DNA 2: TGGTGGCTACGACGGGATT
B28: CGUCUUA (DNA:RNA)
RNA: B3 RNA with A25C, A29U, G30U, G31A
DNA 1: CAATCTGAATTCCGGTCTCCC
DNA 2: TGGTGGCTACGACGGGATT
B29: GUCGUCA (DNA:RNA)
RNA: B1 RNA with A26U, U30C, C31A
DNA 1: CAATCTGAATTCCGGTCTCCC
DNA 2: TGGTGGCTACGACGGGATT
B30: CUCAGAC (DNA:RNA)
RNA: B1 RNA with G25C, A26U, G28A, U29G, U30A
DNA 1: CAATCTGAATTCCGGTCTCCC
DNA 2: TGGTGGCTACGACGGGATT
B31: UAGUACU (DNA:RNA)
RNA: B3 RNA with A25U, G26A, U27G, C28U, G30C, G31U
DNA 1: CAATCTGAATTCCGGTCTCCC
DNA 2: TGGTGGCTACGACGGGATT

Where a chain is given by its changes, count along the chain named. The list shows a part of the results.

The target of this assay is T1, RBFOX1 RRM. The assay is described as follows: EMSA; HiTS-Eq, 1 nM pool, 10 min; buffer printed only for the single-RNA assays: 10 mM Tris pH 7.5, 150 mM NaCl, 3.4 mM EDTA, 0.001% NP-40, 30 C. To be noted: tags: His6 N-terminal (pET28a); label: 5' 32P. The method, boiled down:
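Purified RbFox RRM (wild type or mutant) was equilibrated for 10 min in 50 µL with 1 nM of a 5′-radiolabelled pool of RNA with 7 randomized nucleotides, its flanks annealed to DNA oligonucleotides, across increasing protein concentrations. Free RNA was separated by 8% native PAGE, excised, reverse-transcribed, PCR-barcoded and sequenced on an Illumina HiSeq 2500. Relative association constants came from read-count changes of each variant against the control reaction, normalised to the cognate motif.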
In the case of B1, the binding signal was 0.0182 KA relative to UGCAUGU.

As for B2, the binding signal was 0.0146 KA relative to UGCAUGU.

As to B3, the binding signal was 0.0138 KA relative to UGCAUGU.

For B4, the binding signal is 0.00383 KA relative to UGCAUGU.

Turning to B5, the binding signal was 0.00909 KA relative to UGCAUGU.

In the case of B6, the binding signal is 0.00188 KA relative to UGCAUGU.

Regarding B7, the binding signal is 0.00989 KA relative to UGCAUGU.

B8: the binding signal is 0.00145 KA relative to UGCAUGU.

For B9, the binding signal was 0.0145 KA relative to UGCAUGU.

Consider B10, for which the binding signal is 0.0185 KA relative to UGCAUGU.

Take B11: the binding signal was 0.00774 KA relative to UGCAUGU.

As to B12, the binding signal is 0.000328 KA relative to UGCAUGU.

Regarding B13, the binding signal was 0.0141 KA relative to UGCAUGU.

For the molecule B14, the binding signal is 0.0137 KA relative to UGCAUGU.

For the molecule B15, the binding signal was 0.00758 KA relative to UGCAUGU.

Regarding B16, the binding signal was 0.00327 KA relative to UGCAUGU.

Consider B17, for which the binding signal was 0.0151 KA relative to UGCAUGU.

Take B18: the binding signal is 0.0108 KA relative to UGCAUGU.

As to B19, the binding signal is 0.012 KA relative to UGCAUGU.

Take B20: the binding signal was 0.0213 KA relative to UGCAUGU.

In the case of B21, the binding signal is 0.0165 KA relative to UGCAUGU.

B22: the binding signal is 0.0207 KA relative to UGCAUGU.

Consider B23, for which the binding signal was 0.00728 KA relative to UGCAUGU.

In the case of B24, the binding signal was 0.0071 KA relative to UGCAUGU.

With B25, the binding signal is 0.00527 KA relative to UGCAUGU.

Take B26: the binding signal is 0.0131 KA relative to UGCAUGU.

With B27, the binding signal is 0.00302 KA relative to UGCAUGU.

For B28, the binding signal was 0.00618 KA relative to UGCAUGU.

For B29, the binding signal is 0.0114 KA relative to UGCAUGU.

On to B30, for which the binding signal was 0.0105 KA relative to UGCAUGU.

On to B31, for which the binding signal was 0.0082 KA relative to UGCAUGU.

Source of the values: PMC9911399, “Two distinct binding modes provide the RNA-binding protein RbFox with extraordinary sequence specificity”.
